Results: the supplement of paper PMC12632987
In all, about 4,500 sequences were measured (“median log2 fold change of GCK-ALFA target abundance (FLAG IP / Myc IP barcode read proportion)”: median about 0.078, lowest 2% from about -0.6 on). The list shows a part of the results.

B1: GBRAP_96_7097 (protein)
chain: ELEEARALVRALVAALDTDPERARALAEELLEFPVEVVTRALVEVVTDPEDARKIARLLLELGKEKAEEVLLEAAERAPGPLSKAIIDAMEEYEREQEEA
B2: GBRAP_125_3094 (protein)
chain: EEEALLAALRRLALALGFSEEEAEELAELAARSSLRQTLYALFAAEGYEELADLVEKLTEEQAREALLRLAAWLDAHPDASREEVVARAREIAEELLAAA
B3: GBRAP_26_5444 (protein)
chain: VEELVDKVRDEMDALIDELLPPELAGPAKAELDTLLLELEEFFEKNINDEEALKKAAEEFLKEFREGLEELGVPEEKREKLVAALEEKLKKMLEELKKEK
B4: GBRAP_78_6670 (protein)
chain: EVEELIDKALEHISKASKIVQKLDADTQLEILGLLVDAASHLLEAEENGFDLKELEEALKELEKALKLLKKLDTEEAKAAAEEVEKAIKAVKEAIKLLKE
B5: GBRAP_74_6556 (protein)
chain: SAELLARMRELREAKDLAGLIELAEENVDKLTPEEAAEALTILATAVVEHFEEMTDEELERAMDAIVRLELKIPNELITDELARLIAEATRLAVERLKEK
B6: GBRAP_74_6532 (protein)
chain: MEEIIKEIEKLIESGKPEDLIEAIRLAREKLDKETRIEILDKIAKKVLEKIDELSYEEVEELLDEFVKLEEELDEEEWTDTQLDALAALAAKAVEYEKEK
B7: GBRAP_160_4523 (protein)
chain: SERLEEIKKKIEEAAEEAIEMIKGQTAEQRATIVDGEFGALAMELALDENATDEEVDVVLKARDKLVATILANPDLTDEEVRELIEKAREEIIKELEKLF
B8: GBRAP_195_5408 (protein)
chain: MKVEYAVLRVTASDTPEQILAKIEKIVKEVKEKSNADLVLVVARDPSVPESVIRDAVAEAEKKYPSIKITVEIFDDISLPLETLEKFAEMLALNEEEEKE
B9: GBRAP_52_6048 (protein)
chain: MRERIRRIVEEILEAVLAGDEERARALLREVFETFSDEELELFIEEMAELARRARPEEFDAVARLVELAVEEAEEAGRPEEFADLLEARVYAALYEAEQR
B10: GBRAP_160_4585 (protein)
chain: SEEKEKAKKIIKEEMEEAKEMVVGESAEQRATIVLGAGGVIIMELDELEEATDELLDFVDEVFDALAAEILANPDLTDEEVNALIDKAEKEMLEAVDKYF
B11: GBRAP_11_2662 (protein)
chain: KLEDLKEAYELARKLAETLKKLIEEGVDNEELQAKAEELLEKLKKLAEEKLSEAIRSEVEVLVELWKEFKADKENRLEYAQQLLAGAQVLAGNLQLEIDE
B12: GBRAP_39_5713 (protein)
chain: DEAEELELLASDLEARFAAYQYEKGISEEEAVAEGLAFWRELAEARPEHREELLALIEEAEELGPEAREALAAGAAGIRAGLPLEEAIAVVRYRFEQLKA
B13: GBRAP_80_6769 (protein)
chain: MEERIKEVLEELEKINPEIAELTKELIKVAKELGVPLELILDFAEAILELAKKDKEKALELVKKALEELKKALEEGDKELAIAILVDAISEALLAVEELE
B14: GBRAP_128_3501 (protein)
chain: SLEEAVAETERLMAEVAEASPEEARRLTEEIVALIASVDRETAEAMADAIEARLPELSPEALDVLADTLRELRPKVDPFIARLLAGIQVEALNQLEELEE
B15: GBRAP_125_2973 (protein)
chain: DREALLEDLRLVALALGLSEEDAEEAAELAAASSVRGTLYAIARALGWEAVADAIERLTEEEAREVLRRVAAAIRADPSLTPEEVRALLLEEAEAAIAAR
B16: GBRAP_11_2898 (protein)
chain: KLELLKKLKELLEKLIELLKKILEEGPEDEKLLEEALKVAEEALKLAEKVLDESDVELMKELLELLKKAKEDPENAEQYLKEALAVARVLLGQVLLEIEE
B17: GBRAP_128_3444 (protein)
chain: SMEEMKERAEKILKEFKEKTKEGPEAAAEFFIEELKKVNLEEAEIITKKVIEYLKKQPIELATKILEEIMRLSKKLSPEKRAIVLEYVSPLLYELEEKEE
B18: GBRAP_160_4691 (protein)
chain: SAKVEAAKKFITEEFEEVVSLFDEVTREELAAAVRVAFGQIRLELEELGLLTDEVDEVIDEEEEKIVNAILTDPNLTKEELKAMLEEAKEKIMAKIEKEA
B19: GBRAP_128_3504 (protein)
chain: STAAAVAEAEALMAAIGEADPETARALVEELVALLAAADPETAQAIADAAIAQLPKLDAEALEIVADTLAALRPSLDPEVANLVADIQVEALNLALEKEE
B20: GBRAP_160_4131 (protein)
chain: KEELKELIEEIKEITEEAIKMIEGESVEEARVIAKVALGEIVMEVESNEAVSEELEEKVGEIADEAEETLEANPDLSVEEIKELLKEAAEKVIELLKKEL
B21: GBRAP_160_4242 (protein)
chain: EERLKRLEEEIREEAEVLLEALLESPKSQWPAFARAAAGDWVQLVIEDPNATEELEEEVDRLAEETAEELVAAKDASPEELRALLERGAERIVEAVRKML
B22: GBRAP_39_5680 (protein)
chain: EEEEENEDTVSYLEGVAAKYLYETGKSEEEALKEAKKVLKEYAEKHPELKELLEELIELAEKKGEEAKLALIGVAVLIKEGTPLEEIKEKIEKIIAYFKS
B23: GBRAP_186_5376 (protein)
chain: DEELEEKMDEIIDKLEAEGYRVIVVDTITELTEEEKEAIRRDVEAAGALAKETGQKIALVIPFKGSKEEVEEAKKFIAELNKEAEAASGLKVVLAAKVVE
B24: GBRAP_11_2826 (protein)
chain: EKEKLKELAEKAEEIAKELKRLIASGNPSEEELKELLKKAKELLELTKKYGDESETKLAEILLEEIEEAIADPENQQEHLQHALAFAEVLEGQYLLRYDE
B25: GBRAP_160_4099 (protein)
chain: SEEIEELIEEIEELKEETKEMIKGETNEERATIVEGFGGDVLMLLFSSGLVSEEVEEYADELFDELVATIRANPDLTEEEIIALIEEVVEEVKEKIKEEH
B26: GBRAP_52_6364 (protein)
chain: MLEEAVKKLREAVEAQLAGKEEEMDKILREIVENFSEETIVAAVERVAEEVLEKSLEEAEAFLETAIRLADIMREAGRDEAAADEIEAIAARAYMAVLEK
B27: GBRAP_128_3402 (protein)
chain: SEAEAVARAAALVAAIVEADVATARALARELMALFGTLSLAAQERVAAVVRAALPKLTAEKLDVLADVAREQRPAFTPEAQDIINDWEVDALNAAEEKEE
B28: GBRAP_11_2733 (protein)
chain: KKEKLKEIAEAAERLAELLARLIEEGPEDEELRAEAREALERLAELVEKYGDEDEKKLVEIIREEFERAEEDPENAVAHLERALAAARVLEGQVLLEIEE
B29: GBRAP_128_3442 (protein)
chain: SQEELLKKAFELLDKIVKSDVETAKKLTKELAEVLKQLDEEGRDKVVEYFEKKAKKLSEEKLEAVADALREQIPQADPLTANYLAEMIVILGERILELEE

Molecular target: GABARAP, O95166
Experiment: median log2 fold change of GCK-ALFA target abundance (FLAG IP / Myc IP barcode read proportion) (log2 ratio); each designed protein is fused to an ALFA-tag nanobody in HEK293 cells to bring the named protein to FLAG-tagged glucokinase (GCK); Myc marks an untargeted standard; higher = target protein stabilised (more abundant)
Settings: target protein: 3xFLAG-MCP-GCK-ALFA reporter; HEK293 landing pad (RPLP)
Method in brief: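 An ALFA-nanobody-fused binder library was recombined into HEK293 landing-pad cells and induced with 2 μg mL^−1 doxycycline. Cells were transfected with a plasmid expressing a FLAG-tagged target and a Myc-tagged standard. After 48 h, lysates underwent anti-FLAG and anti-Myc immunoprecipitation, and circular RNA barcodes were reverse transcribed, amplified and sequenced. Target abundance is the per-binder median log2 ratio of FLAG to Myc barcode read proportions. Barcodes needed ≥10^−7 proportion in both replicates, binders ≥3 barcodes per replicate, and a 10^−6 pseudocount was added; the two replicates were pooled.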

Chain of GABARAP, O95166 (O95166 whole entry, the tested form may be a part): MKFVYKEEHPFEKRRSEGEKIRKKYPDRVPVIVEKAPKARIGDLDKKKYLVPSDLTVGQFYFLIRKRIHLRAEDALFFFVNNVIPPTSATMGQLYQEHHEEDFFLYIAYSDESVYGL

| Binder | median log2 fold change |
| --- | --- |
| B1 | 0.253 |
| B2 | 0.075 |
| B3 | 0.245 |
| B4 | 0.0724 |
| B5 | 0.25 |
| B6 | -0.214 |
| B7 | 0.174 |
| B8 | 0.19 |
| B9 | 0.187 |
| B10 | -0.264 |
| B11 | 0.169 |
| B12 | 0.274 |
| B13 | 0.194 |
| B14 | 0.214 |
| B15 | -0.413 |
| B16 | -0.29 |
| B17 | 0.292 |
| B18 | 0.203 |
| B19 | 0.222 |
| B20 | 0.0582 |
| B21 | -0.372 |
| B22 | 0.142 |
| B23 | 0.0418 |
| B24 | 0.257 |
| B25 | -0.261 |
| B26 | 0.165 |
| B27 | 0.116 |
| B28 | 0.0318 |
| B29 | 0.0225 |
